In paper PMC10131790:
Results are given in words; binding and its absence hold for the method and conditions named. Binding seen in cells or lysates may run through a third protein. Some entries that bind do so weakly or less than the wild type. For part of these data: Where a sequence is shown, tags or fusion partners need not be part of it.

Protein sequences, listed by entry. Tags and fused reporters are not part of them.
UniProt Q04637: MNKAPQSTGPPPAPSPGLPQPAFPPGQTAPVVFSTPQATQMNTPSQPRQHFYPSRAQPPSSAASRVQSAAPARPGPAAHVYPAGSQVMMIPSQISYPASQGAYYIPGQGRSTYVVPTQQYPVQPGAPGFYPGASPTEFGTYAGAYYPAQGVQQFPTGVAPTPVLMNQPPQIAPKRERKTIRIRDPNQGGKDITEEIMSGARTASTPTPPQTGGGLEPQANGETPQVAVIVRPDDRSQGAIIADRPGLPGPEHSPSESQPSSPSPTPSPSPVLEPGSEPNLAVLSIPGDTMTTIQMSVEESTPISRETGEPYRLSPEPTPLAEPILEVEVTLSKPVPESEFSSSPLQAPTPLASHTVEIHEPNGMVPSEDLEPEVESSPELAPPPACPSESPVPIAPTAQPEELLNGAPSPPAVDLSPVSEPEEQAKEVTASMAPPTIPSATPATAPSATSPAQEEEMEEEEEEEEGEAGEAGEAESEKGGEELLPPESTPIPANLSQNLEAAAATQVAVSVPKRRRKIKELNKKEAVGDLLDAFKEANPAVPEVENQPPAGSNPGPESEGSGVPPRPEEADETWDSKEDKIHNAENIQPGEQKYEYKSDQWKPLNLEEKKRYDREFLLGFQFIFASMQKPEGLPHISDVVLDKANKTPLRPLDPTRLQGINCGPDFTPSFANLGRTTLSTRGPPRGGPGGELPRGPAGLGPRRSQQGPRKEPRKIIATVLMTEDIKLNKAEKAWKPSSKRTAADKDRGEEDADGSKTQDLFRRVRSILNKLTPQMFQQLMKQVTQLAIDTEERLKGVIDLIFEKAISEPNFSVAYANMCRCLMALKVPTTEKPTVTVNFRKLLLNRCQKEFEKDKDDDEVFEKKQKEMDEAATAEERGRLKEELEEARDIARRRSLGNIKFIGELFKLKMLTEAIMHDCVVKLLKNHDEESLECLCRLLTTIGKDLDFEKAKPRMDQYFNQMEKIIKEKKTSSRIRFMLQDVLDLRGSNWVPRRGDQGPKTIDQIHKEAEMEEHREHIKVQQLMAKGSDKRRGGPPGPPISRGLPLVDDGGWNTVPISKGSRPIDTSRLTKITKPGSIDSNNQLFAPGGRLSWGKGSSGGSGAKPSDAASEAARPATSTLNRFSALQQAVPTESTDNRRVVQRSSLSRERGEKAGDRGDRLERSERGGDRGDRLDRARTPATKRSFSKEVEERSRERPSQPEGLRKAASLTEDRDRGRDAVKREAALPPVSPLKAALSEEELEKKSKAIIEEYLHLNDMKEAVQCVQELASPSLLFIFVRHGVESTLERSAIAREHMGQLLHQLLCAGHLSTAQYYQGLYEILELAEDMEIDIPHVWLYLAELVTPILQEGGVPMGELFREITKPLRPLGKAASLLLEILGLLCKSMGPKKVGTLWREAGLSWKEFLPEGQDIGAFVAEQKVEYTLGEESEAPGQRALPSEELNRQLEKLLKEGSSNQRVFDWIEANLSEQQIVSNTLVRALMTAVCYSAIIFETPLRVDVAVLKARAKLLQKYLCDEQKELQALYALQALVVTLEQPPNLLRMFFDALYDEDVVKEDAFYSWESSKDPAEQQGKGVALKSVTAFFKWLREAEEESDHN
UniProt P06730: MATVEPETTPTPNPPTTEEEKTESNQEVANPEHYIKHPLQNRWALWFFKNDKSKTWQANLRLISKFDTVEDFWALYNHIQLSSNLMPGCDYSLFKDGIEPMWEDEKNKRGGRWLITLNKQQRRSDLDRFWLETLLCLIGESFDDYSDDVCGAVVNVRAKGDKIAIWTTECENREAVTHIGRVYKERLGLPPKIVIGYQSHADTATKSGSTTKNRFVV
UniProt P60842: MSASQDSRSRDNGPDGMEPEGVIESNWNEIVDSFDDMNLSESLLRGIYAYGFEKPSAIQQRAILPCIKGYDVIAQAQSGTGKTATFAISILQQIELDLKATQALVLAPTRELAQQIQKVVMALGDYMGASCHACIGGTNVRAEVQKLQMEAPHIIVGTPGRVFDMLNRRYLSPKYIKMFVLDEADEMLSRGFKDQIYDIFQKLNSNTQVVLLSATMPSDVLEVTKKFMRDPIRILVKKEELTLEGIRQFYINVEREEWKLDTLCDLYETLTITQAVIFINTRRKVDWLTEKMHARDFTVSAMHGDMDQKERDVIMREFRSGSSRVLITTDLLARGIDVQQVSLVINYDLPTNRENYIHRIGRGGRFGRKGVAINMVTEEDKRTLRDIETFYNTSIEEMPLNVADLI

B1: CDKAL1 (protein, UniProt Q5VV42 1-579)
chain: MPSASCDTLLDDIEDIVSQEDSKPQDRHFVRKDVVPKVRRRNTQKYLQEEENSPPSDSTIPGIQKIWIRTWGCSHNNSDGEYMAGQLAAYGYKITENASDADLWLLNSCTVKNPAEDHFRNSIKKAQEENKKIVLAGCVPQAQPRQDYLKGLSIIGVQQIDRVVEVVEETIKGHSVRLLGQKKDNGRRLGGARLDLPKIRKNPLIEIISINTGCLNACTYCKTKHARGNLASYPIDELVDRAKQSFQEGVCEIWLTSEDTGAYGRDIGTNLPTLLWKLVEVIPEGAMLRLGMTNPPYILEHLEEMAKILNHPRVYAFLHIPVQSASDSVLMEMKREYCVADFKRVVDFLKEKVPGITIATDIICGFPGETDQDFQETVKLVEEYKFPSLFINQFYPRPGTPAAKMEQVPAQVKKQRTKDLSRVFHSYSPYDHKIGERQQVLVTEESFDSKFYVAHNQFYEQVLVPKNPAFMGKMVEVDIYESGKHFMKGQPVSDAKVYTPSISKPLAKGEVSGLTKDFRNGLGNQLSSGSHTSAASQCDSASSRMVLPMPRLHQDCALRMSVGLALLGLLFAFFVKVYN
B2: myc-tagged CDKAL1 (protein, UniProt Q5VV42 1-579)
chain: B1 chain

Assays:
[1] = target: eIF4G (human (endogenous in RD)) (UniProt Q04637); experiment: proximity ligation; in situ Duolink PLA with antibodies against endogenous CDKAL1 and eIF4G in fixed CD133^high and CD133^low RD cells
[2] = target: eIF4E (human (endogenous in RD)) (UniProt P06730); experiment: condition: only cells pretreated for 24 h with tunicamycin (1 µg mL^-1), BIO (5 × 10^-6 M) or CHIR-98014 (5 × 10^-6 M); pull-down; m^7GTP-sepharose beads, lysate of RD cells pretreated for 24 h with tunicamycin (1 µg mL^-1), BIO (5 × 10^-6 M) or CHIR-98014 (5 × 10^-6 M), western blot of the precipitate
[3] = target: eIF4E (human (endogenous in RD)) (UniProt P06730); experiment: pull-down; m^7GTP-sepharose beads capture eIF4E and its binding proteins from RD cell lysate (also MGG8, MGG18), 4 h at 4 °C, lysis buffer with 0.5% NP-40, western blot of the precipitate; also with urea-based denaturation and from cells expressing Control-, CDKAL1-, EIF4G- or EIF4E-shRNA
[4] = target: eIF4A (human (endogenous in RD)) (UniProt P60842); experiment: proximity ligation; in situ Duolink PLA with anti-myc tag antibody and antibodies against endogenous eIF4A, eIF4G and eIF4E in fixed RD cells expressing myc-CDKAL1^WT; parental RD cells as control
[5] = target: eIF4G (human (endogenous in RD)) (UniProt Q04637); experiment: as above
[6] = target: eIF4E (human (endogenous in RD)) (UniProt P06730); experiment: as above

| Binder | binding [1] | binding [2] | binding [3] | binding [4] | binding [5] | binding [6] |
| --- | --- | --- | --- | --- | --- | --- |
| B1 | binds | no binding | binds | – | – | – |
| B2 | – | – | – | binds | binds | binds |
